Reference: the supplement of paper PMC10369915
The list shows a part of the results. Rule as the data show it: active = 3.2 or more and inactive = the rest. Most of these values are background signal.

Columns and labels:
Experiment in all cases: enrichment score (SH2-bound / input frequency) (ratio); bacterial display of known human phosphotyrosine sites (pTyr-Var adds point mutants) read by sequencing; higher = stronger binding; tyrosines were phosphorylated by kinases first
Details in all cases: peptide library: pTyr-Var
SHP2 C-SH2 domain E139D = biological target: SHP2 C-SH2 domain E139D
[1] = biological target: SHP2 C-SH2 domain wild-type
SHP2 N-SH2 domain L43F = biological target: SHP2 N-SH2 domain L43F
SHP2 N-SH2 domain T42A = biological target: SHP2 N-SH2 domain T42A
SHP2 N-SH2 domain T52S = biological target: SHP2 N-SH2 domain T52S
[2] = biological target: SHP2 N-SH2 domain wild-type
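Also: displayed peptides selected on beads carrying the immobilized SH2 domain, with library peptides lacking any tyrosine serving as negative controls.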

**Q.** How did the enrichment score (SHP2 C-SH2 domain E139D) turn out when LKALHYMAQTS [SACS_Y3367_V3369A] was run?
**A.** Its enrichment score is inactive: 1.31.

**Q.** And the enrichment score [1]?
**A.** The enrichment score was inactive: 1.23.

**Q.** And the enrichment score (SHP2 N-SH2 domain L43F)?
**A.** The enrichment score was inactive: 1.19.

**Q.** What about the enrichment score (SHP2 N-SH2 domain T42A) of the same binder?
**A.** Its enrichment score is inactive: 0.894.

**Q.** And the enrichment score (SHP2 N-SH2 domain T52S)?
**A.** Its enrichment score is inactive: 1.09.

**Q.** What about the enrichment score [2] of the same binder?
**A.** The enrichment score was inactive: 1.24.

**Q.** Which enrichment score (SHP2 C-SH2 domain E139D) does the source give for VVLVSYVPSSQ [SH2B1_Y624] here?
**A.** Its enrichment score is inactive: 2.89.

**Q.** What about the enrichment score [1] of the same binder?
**A.** Its enrichment score is inactive: 2.42.

**Q.** And the enrichment score (SHP2 N-SH2 domain L43F)?
**A.** Its enrichment score is inactive: 2.82.

**Q.** What about the enrichment score (SHP2 N-SH2 domain T42A) of the same binder?
**A.** The enrichment score was inactive: 2.37.

**Q.** And the enrichment score (SHP2 N-SH2 domain T52S)?
**A.** Its enrichment score is inactive: 2.45.

**Q.** What about the enrichment score [2] of the same binder?
**A.** Its enrichment score is inactive: 2.67.

**Q.** For LVMFIDAIFGM [SCN1A_Y1684_Y1684D], which enrichment score (SHP2 C-SH2 domain E139D) is on record?
**A.** The enrichment score was inactive: 2.98.

**Q.** And the enrichment score [1]?
**A.** The enrichment score was active: 3.37.

**Q.** And the enrichment score (SHP2 N-SH2 domain L43F)?
**A.** Its enrichment score is inactive: 3.01.

**Q.** What about the enrichment score (SHP2 N-SH2 domain T42A) of the same binder?
**A.** The enrichment score was inactive: 2.33.

**Q.** And the enrichment score (SHP2 N-SH2 domain T52S)?
**A.** Its enrichment score is active: 3.81.

**Q.** And the enrichment score [2]?
**A.** Its enrichment score is active: 4.04.

**Q.** TVSQPYSFIEF [SEC22B_Y110_R108Q] was tested. Which enrichment score (SHP2 C-SH2 domain E139D) did it give?
**A.** The enrichment score was inactive: 1.98.

**Q.** And the enrichment score [1]?
**A.** Its enrichment score is active: 3.46.

**Q.** And the enrichment score (SHP2 N-SH2 domain L43F)?
**A.** Its enrichment score is active: 4.24.

**Q.** What about the enrichment score (SHP2 N-SH2 domain T42A) of the same binder?
**A.** The enrichment score was active: 6.26.

**Q.** What about the enrichment score (SHP2 N-SH2 domain T52S) of the same binder?
**A.** Its enrichment score is active: 5.3.

**Q.** What about the enrichment score [2] of the same binder?
**A.** Its enrichment score is inactive: 1.49.

**Q.** Which results are given for DDLEVYLKHLL [SACS_Y3477]?
**A.** enrichment score (SHP2 C-SH2 domain E139D): inactive: 1.54; enrichment score [1]: inactive: 1.17; enrichment score (SHP2 N-SH2 domain L43F): inactive: 1.01; enrichment score (SHP2 N-SH2 domain T42A): inactive: 1.04; enrichment score (SHP2 N-SH2 domain T52S): inactive: 1.17; enrichment score [2]: inactive: 0.996

**Q.** Which enrichment score (SHP2 C-SH2 domain E139D) does the source give for GLDGSYLPRDS [SH2D1A_Y29_L31P] here?
**A.** The enrichment score was inactive: 1.12.

**Q.** And the enrichment score [1]?
**A.** The enrichment score was inactive: 0.67.

**Q.** What about the enrichment score (SHP2 N-SH2 domain L43F) of the same binder?
**A.** The enrichment score was inactive: 0.628.

**Q.** And the enrichment score (SHP2 N-SH2 domain T42A)?
**A.** The enrichment score was inactive: 0.653.

**Q.** And the enrichment score (SHP2 N-SH2 domain T52S)?
**A.** The enrichment score was inactive: 0.632.

**Q.** What about the enrichment score [2] of the same binder?
**A.** Its enrichment score is inactive: 0.585.

**Q.** What does the source list for AIKSFYAALID [RYR1_Y2426_M2423K]?
**A.** enrichment score (SHP2 C-SH2 domain E139D): inactive: 1.75; enrichment score [1]: inactive: 2.21; enrichment score (SHP2 N-SH2 domain L43F): inactive: 1.96; enrichment score (SHP2 N-SH2 domain T42A): inactive: 2.07; enrichment score (SHP2 N-SH2 domain T52S): inactive: 1.96; enrichment score [2]: inactive: 1.78

**Q.** With GLDGSYLLRFS [SH2D1A_Y29_D33Y_YF] as the binder, how does the enrichment score (SHP2 C-SH2 domain E139D) read?
**A.** Its enrichment score is inactive: 1.21.

**Q.** And the enrichment score [1]?
**A.** The enrichment score was inactive: 1.1.

**Q.** And the enrichment score (SHP2 N-SH2 domain L43F)?
**A.** The enrichment score was inactive: 1.1.

**Q.** What about the enrichment score (SHP2 N-SH2 domain T42A) of the same binder?
**A.** Its enrichment score is inactive: 1.2.

**Q.** What about the enrichment score (SHP2 N-SH2 domain T52S) of the same binder?
**A.** Its enrichment score is inactive: 1.19.

**Q.** What about the enrichment score [2] of the same binder?
**A.** The enrichment score was inactive: 1.2.

**Q.** Which results are given for NLAAQYTTVGR [SGSH_Y240_D235N]?
**A.** enrichment score (SHP2 C-SH2 domain E139D): inactive: 0.721; enrichment score [1]: inactive: 1.31; enrichment score (SHP2 N-SH2 domain L43F): inactive: 0.768; enrichment score (SHP2 N-SH2 domain T42A): inactive: 1.15; enrichment score (SHP2 N-SH2 domain T52S): inactive: 0.654; enrichment score [2]: inactive: 0.801

**Q.** PIMSFYAALID [RYR1_Y2426_A2421P] was tested. Which enrichment score (SHP2 C-SH2 domain E139D) did it give?
**A.** The enrichment score was inactive: 0.824.

**Q.** What about the enrichment score [1] of the same binder?
**A.** Its enrichment score is inactive: 1.08.

**Q.** What about the enrichment score (SHP2 N-SH2 domain L43F) of the same binder?
**A.** Its enrichment score is inactive: 1.12.

**Q.** And the enrichment score (SHP2 N-SH2 domain T42A)?
**A.** Its enrichment score is inactive: 1.03.

**Q.** What about the enrichment score (SHP2 N-SH2 domain T52S) of the same binder?
**A.** Its enrichment score is inactive: 1.07.

**Q.** And the enrichment score [2]?
**A.** The enrichment score was inactive: 1.06.

**Q.** Which enrichment score (SHP2 C-SH2 domain E139D) does the source give for SQKRKYIEIDS [SDAD1_Y580] here?
**A.** The enrichment score was inactive: 0.541.

**Q.** What about the enrichment score [1] of the same binder?
**A.** The enrichment score was inactive: 0.559.

**Q.** And the enrichment score (SHP2 N-SH2 domain L43F)?
**A.** Its enrichment score is inactive: 0.948.

**Q.** What about the enrichment score (SHP2 N-SH2 domain T42A) of the same binder?
**A.** The enrichment score was inactive: 1.4.

**Q.** What about the enrichment score (SHP2 N-SH2 domain T52S) of the same binder?
**A.** The enrichment score was inactive: 0.892.

**Q.** And the enrichment score [2]?
**A.** Its enrichment score is inactive: 0.522.

**Q.** RAFRHYLLKQK [SCN2A_Y1919_R1918H_YF] was tested. Which enrichment score (SHP2 C-SH2 domain E139D) did it give?
**A.** The enrichment score was inactive: 0.337.

**Q.** What about the enrichment score [1] of the same binder?
**A.** The enrichment score was inactive: 0.394.

**Q.** And the enrichment score (SHP2 N-SH2 domain L43F)?
**A.** Its enrichment score is inactive: 0.356.

**Q.** And the enrichment score (SHP2 N-SH2 domain T42A)?
**A.** The enrichment score was inactive: 0.43.

**Q.** What about the enrichment score (SHP2 N-SH2 domain T52S) of the same binder?
**A.** Its enrichment score is inactive: 0.338.

**Q.** And the enrichment score [2]?
**A.** Its enrichment score is inactive: 0.374.

**Q.** Which results are given for IVGLLYRLLTE [SETX_Y1978]?
**A.** enrichment score (SHP2 C-SH2 domain E139D): active: 3.92; enrichment score [1]: active: 3.37; enrichment score (SHP2 N-SH2 domain L43F): active: 3.68; enrichment score (SHP2 N-SH2 domain T42A): inactive: 2.79; enrichment score (SHP2 N-SH2 domain T52S): inactive: 3.02; enrichment score [2]: active: 3.38

**Q.** Which results are given for EQKKYYNAVKK [SCN5A_Y1495_M1498V]?
**A.** enrichment score (SHP2 C-SH2 domain E139D): inactive: 1.16; enrichment score [1]: inactive: 1.18; enrichment score (SHP2 N-SH2 domain L43F): inactive: 1.02; enrichment score (SHP2 N-SH2 domain T42A): inactive: 0.876; enrichment score (SHP2 N-SH2 domain T52S): inactive: 1.01; enrichment score [2]: inactive: 0.986

**Q.** With HRNGMYGLHQD [SGSH_Y89_Q85R] as the binder, how does the enrichment score (SHP2 C-SH2 domain E139D) read?
**A.** Its enrichment score is inactive: 1.32.

**Q.** What about the enrichment score [1] of the same binder?
**A.** The enrichment score was inactive: 1.15.

**Q.** What about the enrichment score (SHP2 N-SH2 domain L43F) of the same binder?
**A.** Its enrichment score is inactive: 0.85.

**Q.** And the enrichment score (SHP2 N-SH2 domain T42A)?
**A.** The enrichment score was inactive: 1.08.

**Q.** And the enrichment score (SHP2 N-SH2 domain T52S)?
**A.** Its enrichment score is inactive: 1.05.

**Q.** What about the enrichment score [2] of the same binder?
**A.** Its enrichment score is inactive: 1.02.

**Q.** LLINKYGLSAH [SCP2_Y151] was tested. Which enrichment score (SHP2 C-SH2 domain E139D) did it give?
**A.** The enrichment score was inactive: 0.811.

**Q.** What about the enrichment score [1] of the same binder?
**A.** Its enrichment score is inactive: 0.837.

**Q.** What about the enrichment score (SHP2 N-SH2 domain L43F) of the same binder?
**A.** Its enrichment score is inactive: 1.11.

**Q.** And the enrichment score (SHP2 N-SH2 domain T42A)?
**A.** Its enrichment score is inactive: 0.917.

**Q.** What about the enrichment score (SHP2 N-SH2 domain T52S) of the same binder?
**A.** The enrichment score was inactive: 1.05.

**Q.** And the enrichment score [2]?
**A.** Its enrichment score is inactive: 0.743.

**Q.** Which results are given for LREKVYVSLEA [RXRA_Y397_A398V]?
**A.** enrichment score (SHP2 C-SH2 domain E139D): inactive: 1.08; enrichment score [1]: inactive: 0.967; enrichment score (SHP2 N-SH2 domain L43F): inactive: 1.1; enrichment score (SHP2 N-SH2 domain T42A): inactive: 1.36; enrichment score (SHP2 N-SH2 domain T52S): inactive: 0.927; enrichment score [2]: inactive: 1.28

**Q.** How did the enrichment score (SHP2 C-SH2 domain E139D) turn out when FFCKFYNKSED [RYR1_Y4864_R4861C] was run?
**A.** The enrichment score was inactive: 0.951.

**Q.** What about the enrichment score [1] of the same binder?
**A.** Its enrichment score is inactive: 1.39.

**Q.** What about the enrichment score (SHP2 N-SH2 domain L43F) of the same binder?
**A.** The enrichment score was inactive: 1.02.

**Q.** What about the enrichment score (SHP2 N-SH2 domain T42A) of the same binder?
**A.** Its enrichment score is inactive: 0.785.

**Q.** What about the enrichment score (SHP2 N-SH2 domain T52S) of the same binder?
**A.** The enrichment score was inactive: 1.04.

**Q.** And the enrichment score [2]?
**A.** The enrichment score was inactive: 1.36.
